According to PubChem BioAssay (Tox21):
Values joined by “and” are separate entries in the source; they are usually repeats but may differ in a detail not shown here. Equal entries are not always repeated. Inconclusive means that the source gave no clear call. Such entries were picked first, then a sample of the others. For some of these results: Potencies of inconclusive entries are doubtful fits and often do not repeat. Active and inactive are the calls of the source. Unless noted, calls follow the shape of the dose curve; as a rule, active = well fitted curve in the direction sought with a large enough effect in the repeat runs; inconclusive = weak or mixed curves; inactive = no such curve, though single readings can be large; an effect the other way counts as inactive or inconclusive.

Experiments:
[1] = qHTS assay to identify small molecule phospholipidosis (PLD) inducers (AID 1259344; active = well fitted curve in the direction sought with a large enough effect; inconclusive = small, poorly fitted or top-dose-only effect, or another doubt; inactive = no such curve, though single readings can be large; an effect the other way counts as inactive or inconclusive; also: potency is read from the fitted curve at half-maximal effect)
In short: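 Fluorescent phospholipid staining (LipidTOX Red) measured by automated microscopy in fixed HepG2 cells after 24 h treatment; nuclei counterstained with Hoechst 33342; amiodarone as reference inducer.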

[2] = qHTS assay to identify small molecule agonists of the sonic hedgehog signaling (Shh) pathway - cell viability counter screen (AID 1259366); also: potency is read from the fitted curve at half-maximal effect; nearly all actives have a fitted effect of over 50% in size
In short: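 NIH/3T3-derived 3T3 Gli1-Luc cells (stable Gli1-responsive firefly luciferase reporter) were seeded, rested 4 hr at 37 C/5% CO2, then exposed to compounds in DMSO for 24 hr; viability was read by CellTiter-Fluor fluorescence in the same wells.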

[3] = qHTS assay to identify small molecule antagonists of the sonic hedgehog signaling (Shh) pathway - cell viability counter screen (AID 1259367); also: potency is read from the fitted curve at half-maximal effect; nearly all actives have a fitted effect of over 55% in size
In short: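 Using CellTiter-Fluor, viability of Gli1-Luc reporter 3T3 cells is read by fluorescence in the wells used for the Shh luciferase assay. Treatment lasts 23 hr with conditioned medium, then reagent 1 hr at 37C.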

[4] = qHTS assay to identify small molecule antagonists of the sonic hedgehog signaling (Shh) pathway (AID 1259369; calls by dose curve; also: potency is read from the fitted curve at half-maximal effect; nearly all actives have a fitted effect of over 45% in size)
In short: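 NIH/3T3-derived Gli1-Luc reporter cells plated 4 h, dosed with compound, then stimulated with conditioned medium for 24 h at 37 C. Firefly luciferase luminescence read after 30 min with detection reagent at room temperature.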

[5] = target: Estrogen receptor beta (Homo sapiens) (UniProt Q92731); assay: qHTS assay to identify small molecule agonists of the estrogen receptor beta (ER-beta) signaling pathway (AID 1259377; active = well fitted activation curve with a large enough effect in the signal ratio in the repeat runs, not every such curve was filed as active; inconclusive = weak or mixed curves, or effect the other way; the % refers to the signal ratio; also: potency is read from the fitted curve at half-maximal effect); conditions: ER-beta-UAS-bla HEK293T, beta-lactamase FRET ratio, 16 h; activation: at 92.4 µM (top of the series) unless noted
In short: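 ER-beta-UAS-bla HEK293T (GripTite) cells carrying a UAS-driven beta-lactamase reporter, in medium with 2% charcoal-stripped FBS, were exposed to compounds for 16 hr at 37C; LiveBLAzer B/G FRET substrate was then added and fluorescence read after 2 hours at room temperature.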

[6] = target: Estrogen receptor beta (Homo sapiens) (UniProt Q92731); assay: qHTS assay to identify small molecule antagonists of the estrogen receptor beta (ER-beta) signaling pathway (AID 1259378; active = well fitted inhibition curve with a large enough effect in the signal ratio in the repeat runs, not every such curve was filed as active; inconclusive = weak or mixed curves, or effect the other way; inactive = no such curve, though single readings can be large or run the other way; the % refers to the signal ratio; also: potency is read from the fitted curve at half-maximal effect; as to activity, negative = inhibition: % is scaled to controls: 0 for no effect and ±100 for the full control effect); conditions: ER-beta-UAS-bla HEK293T, beta-lactamase FRET ratio, 16 h; for Potency: activity, negative = inhibition: at 92.4 µM (top of the series) unless noted
In short: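 Antagonist mode: compounds added to beta-lactamase reporter HEK293T ER-beta-UAS cells stimulated with E2 (1nM final), 16 hr at 37C. LiveBLAzer B/G FRET substrate, 2 hours room temperature, fluorescence read-out.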

[7] = qHTS assay to identify small molecule agonists of the estrogen receptor beta (ER-beta) signaling pathway - cell viability counter screen (AID 1259380); also: potency is read from the fitted curve at half-maximal effect; nearly all actives have a fitted effect of over 30% in size
In short: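 ER-beta-UAS-bla HEK293T cells in medium with 2% charcoal-stripped FBS, pre-incubated 6 hr, then treated 16 hr at 37C. Cytotoxicity read in the same wells by CellTiter-Glo luminescence after 30 min at room temperature.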

[8] = qHTS assay to identify small molecule antagonists of the estrogen receptor beta (ER-beta) signaling pathway - cell viability counter screen (AID 1259382); also: potency is read from the fitted curve at half-maximal effect; nearly all actives have a fitted effect of over 55% in size
In short: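 ER-beta-UAS-bla HEK293T cells in 2% charcoal-stripped FBS medium, treated with compound plus 1 nM 17-beta-estradiol for 16 h at 37C. Viability read by CellTiter-Glo luminescence after 30 min at room temperature in the same wells.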

[9] = target: Thyrotropin receptor (Homo sapiens) (UniProt P16473); assay: qHTS assay to identify small molecule antagonists of the thyroid stimulating hormone receptor (TSHR) signaling pathway (AID 1259385; calls by dose curve; also: potency is read from the fitted curve at half-maximal effect; nearly all actives have a fitted effect of over 20% in size); conditions: TSHR-HEK293 cAMP HTRF, TSH-stimulated antagonist mode; activity change, negative = inhibition: at 92.4 µM (top of the series) unless noted
In short: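 Antagonist mode: compound-treated TSHR-expressing HEK293 cells were stimulated with 1.5 ng/mL TSH (final) in presence of Ro20-1724 for 30 min at RT. HTRF cAMP detection after 1 h; each compound tested at 15 concentrations, triplicate.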

[10] = target: Estrogen receptor (Homo sapiens) (UniProt P03372); assay: qHTS assay to identify small molecule antagonists of the estrogen receptor alpha (ER-alpha) signaling pathway using the BG1 cell line in the presence of 0.1 nM 17-beta-estradiol (AID 1259244); also: potency is read from the fitted curve at half-maximal effect; nearly all actives have a fitted effect of over 50% in size
In short: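 VM7Luc4E2 cells (endogenous full-length ER-alpha, 4×ERE-luciferase), kept 5 days in phenol red-free, charcoal-stripped FBS medium; 4,000 cells/well. Compounds added with 0.1 nM (final) 17beta-estradiol, 22 hr at 37C; luminescence read with ONE-Glo after 30 min.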

[11] = qHTS assay to identify small molecule HDAC inhibitors (AID 1259364); also: potency is read from the fitted curve at half-maximal effect; nearly all actives have a fitted effect of over 45% in size
In short: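 Wild-type HCT-116 cells, plated overnight at 37 C, exposed to compounds 2 hr at 37 C; luminogenic HDAC-Glo substrate then added 30 min at room temperature. Luminescence reports relative endogenous class I/II HDAC activity.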

[12] = qHTS assay to identify small molecule HDAC inhibitors - cell viability counter screen (AID 1259365); also: potency is read from the fitted curve at half-maximal effect; nearly all actives have a fitted effect of over 50% in size
In short: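 Wild-type HCT-116 cells were seeded at 1,500 per well, incubated overnight at 37 C, then exposed to compounds in DMSO for 2hr. Viability was read by CellTiter-Glo luminescence after 30min at room temperature.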

[13] = qHTS assay to identify small molecule agonists of the androgen receptor (AR) signaling pathway in the presence of an antagonist - cell viability counter screen (AID 1259379); also: potency is read from the fitted curve at half-maximal effect; nearly all actives have a fitted effect of over 25% in size
In short: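 MDA-kb2 cells (MMTV-luciferase, AR/GR), 3,000/well, 5 h attachment, then 3.0 µM nilutamide (final) and compounds at 15 concentrations. Viability by CellTiter-Fluor fluorescence after 16 h at 37 °C, 0% CO2, in the reporter wells.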

[14] = qHTS assay to identify small molecule agonists of the estrogen receptor alpha (ER-alpha) signaling pathway in the presence of an antagonist - cell viability counter screen (AID 1259386);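 also: potency is read from the fitted curve at half-maximal effect; cells exposed to compounds for 22 h at 37 °C before the viability read; nearly all actives have a fitted effect of over 30% in size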
In short: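 Cell viability in VM7Luc4E2 cells (endogenous full-length ER-alpha) measured by CellTiter-Fluor fluorescence in the same wells as the luciferase screen. Cells pre-cultured 5 days in charcoal-stripped serum, then treated 22 h with compounds at 15 concentrations plus 10.0nM ICI-182,780.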

[15] = qHTS assay to identify small molecule agonists or antagonists of the thyroid stimulating hormone receptor (TSHR) signaling pathway - wild type cell line counter screen (AID 1259384; calls by dose curve; also: % is scaled to controls: 0 for no effect and ±100 for the full control effect); conditions: HEK293 wild type, cAMP HTRF counter-screen; cAMP activity change: at 92.4 µM (top of the series), stronger effect = higher value unless noted
In short: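 Counter screen in untransfected Hek293: compounds (15-point titration, triplicate) plus phosphodiesterase inhibitor Ro20-1724 added after 18 h plating; 30 min RT. Intracellular cAMP via competitive d2/cryptate immunoassay, 1 h incubation.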
Tags tell the direction and shape of the fitted curve or compound fluorescence and quenching.

Sequence of UniProt Q92731 (Q92731 whole entry, looked up): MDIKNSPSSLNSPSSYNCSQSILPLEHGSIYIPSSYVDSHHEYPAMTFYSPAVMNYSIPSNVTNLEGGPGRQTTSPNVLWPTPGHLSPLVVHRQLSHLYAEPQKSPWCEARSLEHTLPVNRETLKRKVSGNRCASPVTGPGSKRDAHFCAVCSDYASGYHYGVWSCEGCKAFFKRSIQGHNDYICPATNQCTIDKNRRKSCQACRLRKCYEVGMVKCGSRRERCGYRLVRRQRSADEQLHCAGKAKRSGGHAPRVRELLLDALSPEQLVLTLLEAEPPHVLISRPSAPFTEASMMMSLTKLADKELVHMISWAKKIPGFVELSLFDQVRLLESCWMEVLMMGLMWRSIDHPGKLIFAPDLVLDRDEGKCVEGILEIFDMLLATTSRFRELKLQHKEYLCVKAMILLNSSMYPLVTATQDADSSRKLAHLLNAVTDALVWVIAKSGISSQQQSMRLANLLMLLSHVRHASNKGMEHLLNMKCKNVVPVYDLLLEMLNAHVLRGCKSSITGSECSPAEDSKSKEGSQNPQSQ
Sequence of UniProt P16473 (P16473 whole entry, looked up): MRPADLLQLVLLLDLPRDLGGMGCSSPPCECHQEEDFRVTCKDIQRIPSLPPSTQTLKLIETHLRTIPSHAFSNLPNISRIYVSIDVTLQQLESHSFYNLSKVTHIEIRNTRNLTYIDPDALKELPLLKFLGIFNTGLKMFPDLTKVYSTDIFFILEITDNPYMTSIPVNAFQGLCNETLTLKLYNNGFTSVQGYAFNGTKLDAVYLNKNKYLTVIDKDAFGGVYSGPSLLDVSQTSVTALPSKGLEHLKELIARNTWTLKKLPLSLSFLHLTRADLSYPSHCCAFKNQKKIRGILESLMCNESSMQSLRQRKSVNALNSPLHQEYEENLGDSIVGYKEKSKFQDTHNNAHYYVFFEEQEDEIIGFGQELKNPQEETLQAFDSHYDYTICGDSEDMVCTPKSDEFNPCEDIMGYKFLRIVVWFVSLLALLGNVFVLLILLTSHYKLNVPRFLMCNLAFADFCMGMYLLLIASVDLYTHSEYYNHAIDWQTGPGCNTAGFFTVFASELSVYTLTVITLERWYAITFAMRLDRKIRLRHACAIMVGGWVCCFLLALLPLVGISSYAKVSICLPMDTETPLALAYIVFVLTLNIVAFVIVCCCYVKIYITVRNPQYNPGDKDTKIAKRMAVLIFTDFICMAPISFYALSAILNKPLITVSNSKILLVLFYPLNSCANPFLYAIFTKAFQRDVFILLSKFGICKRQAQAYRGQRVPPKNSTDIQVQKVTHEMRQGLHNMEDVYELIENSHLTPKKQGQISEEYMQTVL
Sequence of UniProt P03372 (P03372 whole entry, looked up): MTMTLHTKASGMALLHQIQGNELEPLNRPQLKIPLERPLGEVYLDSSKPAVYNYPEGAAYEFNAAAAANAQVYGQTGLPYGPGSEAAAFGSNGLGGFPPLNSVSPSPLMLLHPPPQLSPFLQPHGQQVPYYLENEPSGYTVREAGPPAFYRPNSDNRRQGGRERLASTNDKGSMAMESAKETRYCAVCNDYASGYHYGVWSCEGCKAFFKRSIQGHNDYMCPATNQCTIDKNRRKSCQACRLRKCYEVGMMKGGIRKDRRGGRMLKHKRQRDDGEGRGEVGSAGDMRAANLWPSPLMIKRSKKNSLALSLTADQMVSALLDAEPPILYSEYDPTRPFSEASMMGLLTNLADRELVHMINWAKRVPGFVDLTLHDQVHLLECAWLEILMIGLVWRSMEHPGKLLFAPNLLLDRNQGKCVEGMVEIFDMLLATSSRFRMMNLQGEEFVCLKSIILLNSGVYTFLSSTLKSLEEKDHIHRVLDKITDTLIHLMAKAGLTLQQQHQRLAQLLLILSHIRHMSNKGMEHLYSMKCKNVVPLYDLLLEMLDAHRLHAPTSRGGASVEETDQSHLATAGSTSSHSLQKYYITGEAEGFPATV

## Clc1ccccc1C(c1ccccc1)(c1ccccc1)n1ccnc1
[1]
  Potency: inconclusive: 11.2 µM [activator, single point]
[2]
  Potency: inconclusive: 26.6 µM [cytotoxic, partial curve]
[3]
  Potency: inconclusive: 29.8 µM [cytotoxic, single point]
[4]
  Potency: inconclusive: 1.22 µM [inhibitor, full curve]
[5]
  Potency: inconclusive: 24.3 µM [falling, full curve]
[6]
  Potency: inconclusive: 27.3 µM [cytotoxic, full curve] and active: 8.41 µM
[7]
  Potency: inconclusive: 33.5 µM [cytotoxic, single point]
[8]
  Potency: inconclusive: 33.5 µM [cytotoxic, single point]
[9]
  Potency: active: 54.5 µM and inconclusive: 29.8 µM

## O=C1NCN(c2ccccc2)C12CCN(CCCC(c1ccc(F)cc1)c1ccc(F)cc1)CC2
[1]
  Potency: inconclusive: 0.891 µM [activator, full curve]
[2]
  Potency: inconclusive: 33.5 µM [cytotoxic, single point]
[3]
  Potency: inconclusive: 33.5 µM [cytotoxic, single point]
[4]
  Potency: inconclusive: 33.5 µM [inhibitor, single point]
[6]
  Potency: active: 18.8 µM
[7]
  Potency: inconclusive: 33.5 µM [cytotoxic, single point]

## CC(O)(c1ccc(Cl)cc1)c1ccc(Cl)cc1
[10]
  Potency: inconclusive: 43.3 µM [inhibitor]
[3]
  Potency: inconclusive: 61.1 µM [cytotoxic, partial curve, poor fit]
[4]
  Potency: active: 43.3 µM
[6]
  Potency: inconclusive: 54.5 µM [inhibitor, partial curve, poor fit]

## O=c1c(O)c(-c2ccc(O)cc2)oc2cc(O)cc(O)c12
[11]
  Potency: active: 21.6 µM and active: 16.4 µM
[12]
  Potency: inconclusive: 27.2 µM [rising, partial curve, poor fit]
[3]
  Potency: active: 48.4 µM and inconclusive: 29.2 µM [cytotoxic, partial curve]
[4]
  Potency: active: 21.6 µM and active: 26 µM
[13]
  Potency: inconclusive: 60.9 µM [cytotoxic]
[7]
  Potency: inconclusive: 68.3 µM [rising, single point] and inconclusive: 36.8 µM [rising, single point]
[8]
  Potency: inconclusive: 68.3 µM [rising, single point]
[14]
  Potency: inconclusive: 54.3 µM [cytotoxic, partial curve, poor fit] and inconclusive: 41.3 µM [cytotoxic, partial curve]

## C=C1C[C@H]2[C@@H]3C=C(C)C4=CC(=O)CC[C@]4(C)[C@H]3CC[C@]2(C)[C@@]1(OC(C)=O)C(C)=O
[1]
  Potency: inconclusive: 12.6 µM [activator, single point]
[6]
  Potency: inconclusive: 44.2 µM [inhibitor]

## CCOC(=O)C1=C(C)NC(C)=C(C(=O)OCC)C1c1ccccc1/C=C/C(=O)OC(C)(C)C
[10]
  Potency: inconclusive: 10.6 µM [inhibitor, partial curve, poor fit]
[2]
  Potency: inconclusive: 29.8 µM [cytotoxic, single point]
[5]
  Potency: inconclusive: 33.5 µM [activator, partial curve, poor fit]
[6]
  Potency: inactive
[13]
  Potency: inconclusive: 26.6 µM [cytotoxic, single point]
[7]
  Potency: active: 23.7 µM

## CC(=O)O[C@]1(C(C)=O)CC[C@H]2[C@@H]3C=C(Cl)C4=CC(=O)[C@@H]5C[C@@H]5[C@]4(C)[C@H]3CC[C@@]21C
[1]
  Potency: inconclusive: 12.6 µM [activator, single point]
[6]
  Potency: active: 54.5 µM
[6]; at 42.5 µM (top of the series)
  activity, negative = inhibition: inconclusive: -6.4%
[6]; at 92.4 µM (top of the series)
  activity, negative = inhibition: inconclusive: -50.3%
[13]
  Potency: inconclusive: 68.5 µM [cytotoxic, single point] and inconclusive: 61.1 µM [cytotoxic, single point]

## CN1CCN(CCCN2c3ccccc3Sc3ccc(Cl)cc32)CC1
[1]
  Potency: inconclusive: 5.01 µM [activator, single point]
[3]
  Potency: inconclusive: 13.3 µM [cytotoxic, partial curve]
[4]
  Potency: active: 16.8 µM
[7]
  Potency: active: 21.1 µM
[9]
  Potency: active: 26.6 µM

## Cc1cc(Nc2ccc(O)cc2)ccc1N
[11]
  Potency: inconclusive: 54.2 µM [inhibitor, partial curve]
[12]
  Potency: inconclusive: 48.3 µM [cytotoxic, partial curve]
[3]
  Potency: active: 24.2 µM
[4]
  Potency: inconclusive: 9.64 µM [inhibitor, full curve]
[7]
  Potency: active: 27.2 µM
[15]
  cAMP activity change: inconclusive: -5.52%
[9]
  Potency: inconclusive: 24.2 µM
